Data reported in the RNAGym collection of RNA variant scans (doi:10.1073/pnas.2313332121).
Variants at the background level are over-represented here.

B1: TPR 5TU (parent)
chain: GGAUCUUCUCGAUCUAACAAAAAAGACAAAUCUGCCACAAAGCUUGAGAGCAUCUUCGGAUGCAGAGGCGGCAGCCUUCGGUGGCGCGAUAGCGCCAACGUUCUCAACUAUGACACGCAAAACGCGUGCUCCGUUGAAUGGAGUUUAUCAUG

Variants of: B1
Assay: polymerase ribozyme fitness, log enrichment relative to wild type (log ratio); higher = more active; in vitro selection for triplet polymerase activity
How it was run: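 Libraries of mutants in each subunit of a heterodimeric triplet polymerase ribozyme were generated by PCR and transcribed. In triplicate, each went through one in vitro selection round: annealing with biotinylated primer, partner subunit and triplets; frozen incubation at −7 °C; gel excision of extended constructs; streptavidin-bead capture; RT-PCR. Fitness, taken from Illumina sequencing of input and output libraries, is the logarithm of a genotype's enrichment over wild-type enrichment, averaged across replicates with inverse-variance weights. The logarithm is base 2, and genotypes needed ≥10 input reads and ≥1 read per output to be kept.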

| Variant | polymerase ribozyme fitness (log ratio) |
| --- | --- |
| G46A A60U G83C G84U C96U G124U U134G U148G | ≤ -4.2 |
| U45A A49C U61A G65A G88C | ≤ -4.2 |
| U45A G80U C105A G136A | ≤ -4.2 |
| U45A C79A | ≤ -4.2 |
| U44G U139A | ≤ -4.2 |
| U45A U55A G62A G65A G71U C95U U109G A137G A138U | ≤ -4.2 |
| U44G A52C A64U A66C G117A | ≤ -4.2 |
| U45G C93G C123A | ≤ -4.2 |
| U45A C99G A122U U135C | ≤ -4.2 |
| U45A C76U C93U U104A A119G A147U | ≤ -4.2 |
| U45A C75U U77A G94A C95U A97U U146A G152U | ≤ -4.2 |
| U44G G48A A73U G86U C99A C108G A110U U130G | ≤ -4.2 |
| U45A G86A A97U G128U U146A A150C | ≤ -4.2 |
| U45G A60G G86A A110C G141A A147G | ≤ -4.2 |
| U45A G88C C123A U148C | ≤ -4.2 |
| U45G C116U | 0.00932 |
| U45A A52G C118A | -4.18 |
| U45A U55A | -2.95 |
| U44G U55A G67C C79G C99A A113U A121U | ≤ -4.2 |
| U44G C75G C103A U148A | ≤ -4.2 |
| G46A A52G C76G C87U U104G G126U | ≤ -4.2 |

| Variant | polymerase ribozyme fitness (log ratio) |
| --- | --- |
| U45A U77C C131U | ≤ -4.2 |
| U44G C96A G136A U145G | ≤ -4.2 |
| U45A C93U | -3.15 |
| U44G G50A U55G U101G G126U U134A | ≤ -4.2 |
| U45A G59C G94A G126U G140C | ≤ -4.2 |
| U45A U82A G84C G92U U139G | ≤ -4.2 |
| U45A A60G | -2.47 |
| U45A U101G G136A | ≤ -4.2 |
| U45C G84A | -1.08 |
| U45A A47C G48A G84C A98G A107G C116A G133U A142C | ≤ -4.2 |
| U45G A49U U55A C103G C125U | ≤ -4.2 |
| U45A U56G A64C G65C C79U C93G | ≤ -4.2 |
| U45A G48A U53A C93A C103A C114U | ≤ -4.2 |
| G46A A52G C54G G58C A91U A122C | ≤ -4.2 |
| G46A A52G G86U A91G A98U C114G | ≤ -4.2 |
| G46A A91C A120C A138U | ≤ -4.2 |
| U44G U53A G94C C108A | ≤ -4.2 |
| U45G C75A C85U C99G A115U | ≤ -4.2 |
| U44G G70C G140U | ≤ -4.2 |
| U45A C103G | ≤ -4.2 |
| U45A A49G G83A C85U C99G U104C | ≤ -4.2 |
